Measurements: ChEMBL document CHEMBL4888484, “Replenishing the malaria drug discovery pipeline: Screening and hit evaluation of the MMV Hit Generation Library 1 (HGL1) against asexual blood stage Plasmodium falciparum ,using a nano luciferase reporter read-out” (2022)
Out of some 150,000 compounds screened, about 540 (0.36%) showed an effect of 50% or more. This is one part of the list.

These compounds were tested on Plasmodium falciparum (assay: Primary screen in NF54 nanoGlo assay, in single point, at 2uM, 72h; a lower Z score goes with more inhibition). Settings: timepoint 72 hour.
Type: functional, Erythrocyte

Compound	% Inhibition	Z score
CC(C)c1nsc(NCCc2cncn2C)n1	-1%	0.08
CNCc1cc(C)n(-c2cc(S(=O)(=O)N3CCOCC3)ccc2N2CCCC2)c1C	-1%	0.09
CO/C(=N/C(=O)c1ccc(Cl)c(Cl)c1)NCCCc1ccccc1	5%	-0.74
C#CCCN1CCC(NC(=O)c2cc(C3CC3)nc3ccccc23)CC1	-8%	0.76
O=C(c1cnc[nH]1)N1CCN(c2c(F)cccc2F)CC1	0%	0.05
COCC(=O)N1CCCN(C(=O)c2cccc(-c3ccccc3O)c2)CC1	-6%	1.12
CCc1nc(C(C)C)ccc1C(=O)N(C)Cc1cnccn1	-12%	1.4
CCn1ncc(Cl)c1C(=O)N1CC[C@@H]2OCc3cnnn3[C@@H]2C1	-11%	2.15
Cc1ccc(C(=O)N2CCN(C(=O)c3cc4ccsc4n3Cc3cccc(F)c3)C[C@@H]2C)cc1	-8%	1.16
CC[C@@H]1NC(=O)N(Cc2ccc(-c3ccc(OC)cc3)s2)C1=O	3%	-0.49
CCn1cc(CN(CC(C)C)C(=O)c2ccccc2C#N)cn1	-14%	1.8
O=C([C@@H]1Cc2ccccc2N1)N1CCC(CO)CC1	2%	-0.29
Cc1nc(N2CCN(C[C@H](O)C3CC3)CC2)c(Cl)cc1C#N	-2%	0.37
CC(C)C[C@H](CN)CC(=O)OCCc1ccccc1	-8%	0.64
N#CC1(C(=O)N[C@H]2CN(CC(N)=O)C[C@@H]2c2ccccc2)CCOCC1	-5%	0.7
C#CCNS(=O)(=O)c1c(N)noc1C	-2%	0.26
O=C(Nc1ccc(OC(F)(F)F)cc1)N1CC[C@H](c2nc3ccccc3o2)C1	-3%	0.49
Cc1ocnc1C(=O)N(CC1CCCCC1)c1ccccn1	-1%	0.19
Cc1cccn2c(O)c(C(=O)NCCO)c(=O)nc12	1%	-0.1
COc1ccccc1OCC[C@H]1CCN(C(=O)CCC2CCCC2)C1	-7%	1.37
CC(C)[C@H](NC(=O)c1cnn(CCF)c1)C1(CO)CCCC1	8%	-1.57
Cc1noc(C)c1S(=O)(=O)N1CC[C@H](c2noc(-c3ccccn3)n2)C1	-14%	1.77
COc1ccc(CCC(=O)N2CCC[C@H](c3nnn[nH]3)C2)cc1	-6%	0.91
Cc1ccc([C@@H]2CC(c3cccc(C)c3)=NN2C(=O)CN2CCOCC2)cc1	-7%	0.88
CCC(C)NC(=O)C1CCC(c2cccc(C(F)(F)F)c2)N(C(C)=O)C1 (stereo not drawn)	-11%	1.58
COCc1ccc(NC(=O)N[C@H]2CCO[C@@H]2c2cnn(C(C)C)c2)cc1C#N	-22%	3.31
COc1cccc(-c2cnn(CC3CC3)c2)c1OC	0%	-0.02

Compound	% Inhibition	Z score
Cn1cc(CNCc2ccc(N3CCCC[C@@H]3CCO)nc2)cn1	-3%	0.49
CC(C)N(CCC(=O)O)Cc1ccccc1F	2%	-0.26
Cn1ncc2c(=O)n(Cc3csc(Cc4ccc(Cl)cc4)n3)nnc21	-5%	1.02
Cc1oc(-c2ccccc2NC(=O)CCOc2ccccc2)nc1CNC(=O)c1cc(C(C)C)n[nH]1	-5%	0.89
CC(C)=CCN1CC2(CCN(C(=O)c3cnccc3C)CC2)CC1=O	-9%	0.85
Cc1ccc(F)cc1NS(=O)(=O)c1cc(-c2ccnn2C(C)C)cs1	-7%	0.85
CN1CCN(C(=O)c2cscc2-c2ccccc2)CC1=O	-12%	1.52
O=C(C[C@H]1CCCN(c2cn[nH]c(=O)c2)C1)Nc1ccc(F)cc1F	-13%	1.65
Cc1ccc(NC(=O)Cc2c(C)noc2C)nc1	1%	-0.16
CCOC(=O)[C@@]1(C(C)C)CCN(C(=O)c2c[nH]nc2C2CC2)C1	3%	-0.36
CN1CCC(n2cnc(-c3ccccc3)c2-c2cccc3cccnc23)CC1	-3%	0.58
Cc1ccsc1[C@@H]1CCCCCN1S(=O)(=O)c1ccc(C(C)C)cc1	-2%	0.49
COc1ccc(CN2CCC(=O)N(CC3CCCCC3)CC2)c(Cl)c1OC	6%	-1.11
Cc1cnccc1NC(=O)N1CC[C@H](CN2CCCCC2)C1	-7%	0.83
CNC(=O)[C@H]1CCN(S(=O)(=O)N(C)Cc2ccccc2)C1	-20%	1.95
CN1CCc2[nH]nc(C(=O)N3CCN(c4ccccn4)CC3)c2C1	-8%	0.77
COCCc1noc(-c2cnc3nc(C)ccc3c2Nc2ccc(C)c(F)c2)n1	-11%	2.03
CCc1nc(C)nc(N2CCN(C[C@H](O)COc3ccccc3C)CC2)c1Cc1cccc(C)c1	36%	-4.89
CCc1nc2ccccc2n1[C@@H](CC)C(=O)NCc1nc(C(N)=O)no1	-10%	1.73
COC(=O)[C@H](C)N1CCC(CN2CCOCC2)CC1	-14%	2.66
Cc1nn(C)c(C)c1CCC(=O)N1CC[C@@H]2CN(Cc3ccccc3)[C@@H]2C1	-12%	1.39
COc1cccc(-c2noc(N3CCC[C@H]3C(=O)N(C)C)n2)c1	-2%	0.29
CCn1cc(-c2c(-c3ccccc3)ncn2Cc2sc(COC)nc2C)c(C)n1	-12%	1.15
Cc1ccc(S(=O)(=O)N2C(=O)CC[C@H]2C(=O)O/N=C(\N)c2ccncc2)cc1	-15%	1.96
CC(C)c1nc(C2(NCc3nc(N(C)C)no3)CCCC2)no1	1%	-0.17
CCc1nc(Cn2cc(S(=O)(=O)N(C)C)cn2)cs1	-2%	0.38
COc1cnc(NC(=O)c2ccc(-n3cnnn3)cc2)cn1	-13%	2.24
